{"source": "paper PMC9911399", "about": "“Two distinct binding modes provide the RNA-binding protein RbFox with extraordinary sequence specificity”", "binders": {"B1": {"name": "CUCCCCU (DNA:RNA)", "RNA": "GGGAGACCGGAAUUCAGAUUGUCCCUCCCCUUUAAAUCCCGUCGUAGCCACCA", "DNA 1": "CAATCTGAATTCCGGTCTCCC", "DNA 2": "TGGTGGCTACGACGGGATT"}, "B2": {"name": "CGGGGAG (DNA:RNA)", "RNA": "B1 RNA with U26G, C27G, C28G, C29G, C30A, U31G", "DNA 1": "CAATCTGAATTCCGGTCTCCC", "DNA 2": "TGGTGGCTACGACGGGATT"}, "B3": {"name": "UCUGGUU (DNA:RNA)", "RNA": "B1 RNA with C25U, U26C, C27U, C28G, C29G, C30U", "DNA 1": "CAATCTGAATTCCGGTCTCCC", "DNA 2": "TGGTGGCTACGACGGGATT"}, "B4": {"name": "CUACACG (DNA:RNA)", "RNA": "B1 RNA with C27A, C29A, U31G", "DNA 1": "CAATCTGAATTCCGGTCTCCC", "DNA 2": "TGGTGGCTACGACGGGATT"}, "B5": {"name": "CGCCGGA (DNA:RNA)", "RNA": "B1 RNA with U26G, C29G, C30G, U31A", "DNA 1": "CAATCTGAATTCCGGTCTCCC", "DNA 2": "TGGTGGCTACGACGGGATT"}, "B6": {"name": "UGUUGUC (DNA:RNA)", "RNA": "GGGAGACCGGAAUUCAGAUUGUCCUGUUGUCUUAAAUCCCGUCGUAGCCACCA", "DNA 1": "CAATCTGAATTCCGGTCTCCC", "DNA 2": "TGGTGGCTACGACGGGATT"}, "B7": {"name": "GUUACGA (DNA:RNA)", "RNA": "B1 RNA with C25G, C27U, C28A, C30G, U31A", "DNA 1": "CAATCTGAATTCCGGTCTCCC", "DNA 2": "TGGTGGCTACGACGGGATT"}, "B8": {"name": "ACUUCGC (DNA:RNA)", "RNA": "B6 RNA with U25A, G26C, G29C, U30G", "DNA 1": "CAATCTGAATTCCGGTCTCCC", "DNA 2": "TGGTGGCTACGACGGGATT"}, "B9": {"name": "AACAGGU (DNA:RNA)", "RNA": "B1 RNA with C25A, U26A, C28A, C29G, C30G", "DNA 1": "CAATCTGAATTCCGGTCTCCC", "DNA 2": "TGGTGGCTACGACGGGATT"}, "B10": {"name": "GUACAGG (DNA:RNA)", "RNA": "B1 RNA with C25G, C27A, C29A, C30G, U31G", "DNA 1": "CAATCTGAATTCCGGTCTCCC", "DNA 2": "TGGTGGCTACGACGGGATT"}, "B11": {"name": "AGAAAAU (DNA:RNA)", "RNA": "B1 RNA with C25A, U26G, C27A, C28A, C29A, C30A", "DNA 1": "CAATCTGAATTCCGGTCTCCC", "DNA 2": "TGGTGGCTACGACGGGATT"}, "B12": {"name": "GUCUUGG (DNA:RNA)", "RNA": "B1 RNA with C25G, C28U, C29U, C30G, U31G", "DNA 1": "CAATCTGAATTCCGGTCTCCC", "DNA 2": "TGGTGGCTACGACGGGATT"}, "B13": {"name": "CACGAUA (DNA:RNA)", "RNA": "B1 RNA with U26A, C28G, C29A, C30U, U31A", "DNA 1": "CAATCTGAATTCCGGTCTCCC", "DNA 2": "TGGTGGCTACGACGGGATT"}, "B14": {"name": "AUCAUCG (DNA:RNA)", "RNA": "B1 RNA with C25A, C28A, C29U, U31G", "DNA 1": "CAATCTGAATTCCGGTCTCCC", "DNA 2": "TGGTGGCTACGACGGGATT"}, "B15": {"name": "UCGUUAG (DNA:RNA)", "RNA": "B6 RNA with G26C, U27G, G29U, U30A, C31G", "DNA 1": "CAATCTGAATTCCGGTCTCCC", "DNA 2": "TGGTGGCTACGACGGGATT"}, "B16": {"name": "ACCUUGA (DNA:RNA)", "RNA": "B1 RNA with C25A, U26C, C28U, C29U, C30G, U31A", "DNA 1": "CAATCTGAATTCCGGTCTCCC", "DNA 2": "TGGTGGCTACGACGGGATT"}, "B17": {"name": "AUGUGAG (DNA:RNA)", "RNA": "B6 RNA with U25A, G26U, U27G, U30A, C31G", "DNA 1": "CAATCTGAATTCCGGTCTCCC", "DNA 2": "TGGTGGCTACGACGGGATT"}, "B18": {"name": "GUAUGCC (DNA:RNA)", "RNA": "B6 RNA with U25G, G26U, U27A, U30C", "DNA 1": "CAATCTGAATTCCGGTCTCCC", "DNA 2": "TGGTGGCTACGACGGGATT"}, "B19": {"name": "GUAUCAC (DNA:RNA)", "RNA": "B1 RNA with C25G, C27A, C28U, C30A, U31C", "DNA 1": "CAATCTGAATTCCGGTCTCCC", "DNA 2": "TGGTGGCTACGACGGGATT"}, "B20": {"name": "AUAUCCU (DNA:RNA)", "RNA": "B1 RNA with C25A, C27A, C28U", "DNA 1": "CAATCTGAATTCCGGTCTCCC", "DNA 2": "TGGTGGCTACGACGGGATT"}, "B21": {"name": "AUAUGUG (DNA:RNA)", "RNA": "B6 RNA with U25A, G26U, U27A, C31G", "DNA 1": "CAATCTGAATTCCGGTCTCCC", "DNA 2": "TGGTGGCTACGACGGGATT"}, "B22": {"name": "CAAUGUU (DNA:RNA)", "RNA": "B6 RNA with U25C, G26A, U27A, C31U", "DNA 1": "CAATCTGAATTCCGGTCTCCC", "DNA 2": "TGGTGGCTACGACGGGATT"}, "B23": {"name": "AGGAAUG (DNA:RNA)", "RNA": "B6 RNA with U25A, U27G, U28A, G29A, C31G", "DNA 1": "CAATCTGAATTCCGGTCTCCC", "DNA 2": "TGGTGGCTACGACGGGATT"}, "B24": {"name": "UCAACUG (DNA:RNA)", "RNA": "B6 RNA with G26C, U27A, U28A, G29C, C31G", "DNA 1": "CAATCTGAATTCCGGTCTCCC", "DNA 2": "TGGTGGCTACGACGGGATT"}, "B25": {"name": "CCCCCCA (DNA:RNA)", "RNA": "B1 RNA with U26C, U31A", "DNA 1": "CAATCTGAATTCCGGTCTCCC", "DNA 2": "TGGTGGCTACGACGGGATT"}, "B26": {"name": "CGGUGUC (DNA:RNA)", "RNA": "B6 RNA with U25C, U27G", "DNA 1": "CAATCTGAATTCCGGTCTCCC", "DNA 2": "TGGTGGCTACGACGGGATT"}, "B27": {"name": "UGAAUGU (DNA:RNA)", "RNA": "B6 RNA with U27A, U28A, G29U, U30G, C31U", "DNA 1": "CAATCTGAATTCCGGTCTCCC", "DNA 2": "TGGTGGCTACGACGGGATT"}, "B28": {"name": "CCCCGUG (DNA:RNA)", "RNA": "B1 RNA with U26C, C29G, C30U, U31G", "DNA 1": "CAATCTGAATTCCGGTCTCCC", "DNA 2": "TGGTGGCTACGACGGGATT"}, "B29": {"name": "AGCGGUA (DNA:RNA)", "RNA": "B6 RNA with U25A, U27C, U28G, C31A", "DNA 1": "CAATCTGAATTCCGGTCTCCC", "DNA 2": "TGGTGGCTACGACGGGATT"}, "B30": {"name": "GUAAGUA (DNA:RNA)", "RNA": "B6 RNA with U25G, G26U, U27A, U28A, C31A", "DNA 1": "CAATCTGAATTCCGGTCTCCC", "DNA 2": "TGGTGGCTACGACGGGATT"}, "B31": {"name": "AUAUCGG (DNA:RNA)", "RNA": "B1 RNA with C25A, C27A, C28U, C30G, U31G", "DNA 1": "CAATCTGAATTCCGGTCTCCC", "DNA 2": "TGGTGGCTACGACGGGATT"}}, "note": "Where a chain is given by its changes, count along the chain named. The list shows a part of the results.", "data": [{"biological_target": "T1, RBFOX1 RRM RbFoxmut (Fox-RRM*) (Homo sapiens, UniProt Q9NWB1 109-208, R118D;E147R;N151S;E152T)", "T1 sequence": "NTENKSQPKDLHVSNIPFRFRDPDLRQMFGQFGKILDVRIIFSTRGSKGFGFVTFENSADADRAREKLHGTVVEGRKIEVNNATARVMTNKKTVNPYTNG", "assay": "EMSA; HiTS-Eq, 1 nM pool, 10 min; buffer printed only for the single-RNA assays: 10 mM Tris pH 7.5, 150 mM NaCl, 3.4 mM EDTA, 0.001% NP-40, 30 C", "conditions": "tags: His6 N-terminal (pET28a); label: 5' 32P", "summary_of_the_method": "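Purified RbFox RRM, wild type or mutant, was incubated for 10 min in 50 µL with 1 nM of a 5′-radiolabelled RNA pool carrying 7 randomized nucleotides, whose flanks were annealed to DNA oligonucleotides, over a series of increasing protein concentrations. Unbound RNA was resolved on 8% native PAGE, cut out, reverse-transcribed, barcoded by PCR and sequenced on an Illumina HiSeq 2500. Relative association constants were derived from changes in read counts for each RNA species versus the control reaction and normalised to the cognate motif.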", "values": [{"binder": "B1", "binding signal": "0.057 KA relative to UGCAUGU"}, {"binder": "B2", "binding signal": "0.12 KA relative to UGCAUGU"}, {"binder": "B3", "binding signal": "0.0853 KA relative to UGCAUGU"}, {"binder": "B4", "binding signal": "0.0908 KA relative to UGCAUGU"}, {"binder": "B5", "binding signal": "0.0866 KA relative to UGCAUGU"}, {"binder": "B6", "binding signal": "0.468 KA relative to UGCAUGU"}, {"binder": "B7", "binding signal": "0.111 KA relative to UGCAUGU"}, {"binder": "B8", "binding signal": "0.107 KA relative to UGCAUGU"}, {"binder": "B9", "binding signal": "0.0863 KA relative to UGCAUGU"}, {"binder": "B10", "binding signal": "0.0913 KA relative to UGCAUGU"}, {"binder": "B11", "binding signal": "0.072 KA relative to UGCAUGU"}, {"binder": "B12", "binding signal": "0.403 KA relative to UGCAUGU"}, {"binder": "B13", "binding signal": "0.105 KA relative to UGCAUGU"}, {"binder": "B14", "binding signal": "0.148 KA relative to UGCAUGU"}, {"binder": "B15", "binding signal": "0.146 KA relative to UGCAUGU"}, {"binder": "B16", "binding signal": "0.0971 KA relative to UGCAUGU"}, {"binder": "B17", "binding signal": "0.17 KA relative to UGCAUGU"}, {"binder": "B18", "binding signal": "0.278 KA relative to UGCAUGU"}, {"binder": "B19", "binding signal": "0.125 KA relative to UGCAUGU"}, {"binder": "B20", "binding signal": "0.0827 KA relative to UGCAUGU"}, {"binder": "B21", "binding signal": "0.19 KA relative to UGCAUGU"}, {"binder": "B22", "binding signal": "0.109 KA relative to UGCAUGU"}, {"binder": "B23", "binding signal": "1.4 KA relative to UGCAUGU"}, {"binder": "B24", "binding signal": "0.0679 KA relative to UGCAUGU"}, {"binder": "B25", "binding signal": "0.0562 KA relative to UGCAUGU"}, {"binder": "B26", "binding signal": "0.21 KA relative to UGCAUGU"}, {"binder": "B27", "binding signal": "0.75 KA relative to UGCAUGU"}, {"binder": "B28", "binding signal": "0.0924 KA relative to UGCAUGU"}, {"binder": "B29", "binding signal": "0.161 KA relative to UGCAUGU"}, {"binder": "B30", "binding signal": "0.148 KA relative to UGCAUGU"}, {"binder": "B31", "binding signal": "0.11 KA relative to UGCAUGU"}]}]}
